In all, about 52,000 compounds went through this assay and about 4,300 (8.3%) were called active. No stated cut-off is given here; in the data, active means survival mostly below about 52% (no sharp cut-off); inactive means mostly above about 56%. The list shows a part of the results.

The test has as its system DeltatarO mutant. Put plainly: S. aureus survival, RN4220 and DeltatarO strains – OD600, teichoic acid synthesis inhibitors, primary screen (AID 463173). To be noted: S. aureus RN4220 wild type/DeltatarO growth, OD600, 18 h, active compounds read low, screened at 18.75 µg/mL (by protocol).
For `CCCOc1ccc(Cn2c(=O)sc3ccccc32)cc1`, the survival was active: -1%.

`Cc1cc(F)ccc1NC(=O)CN1C(=O)CCc2cc(S(=O)(=O)N3CCOCC3)ccc21`: the survival is inactive: 76%.

For `Cc1ccc(-n2ncc(C(=O)N(C)Cc3ccccc3)c2-n2cccc2)cc1`, the survival was inactive: 71%.

`Cc1cc(Br)ccc1NC(=O)C(NS(=O)(=O)c1cccs1)c1ccccc1` (stereo unspecified): the survival is active: 31%.

In the case of `COc1ccc(Cl)cc1NC(=O)c1cc2nc(-c3ccc(C)cc3)cc(C(F)(F)F)n2n1`, the survival is inactive: 78%.

With `CC(CNC(=O)c1cc2ccccn2n1)c1ccccc1` (stereo unspecified), the survival was inactive: 95%.

On to `NS(=O)(=O)c1ccc(CCNC(=O)CCn2c(=O)c3cccn3c3cccnc32)cc1`, for which the survival was inactive: 95%.

In the case of `COc1ccccc1N1CCN(CC(N)=O)CC1`, the survival is inactive: 74%.

With `COc1cccc(CNC(=O)c2ccc3c(c2)sc2nc(-c4ccccc4)cn23)c1OC`, the survival is inactive: 55%.

Consider `CCOc1ccccc1CNC(=O)c1cc2oc3ccccc3c2n1CC`, for which the survival is active: 2%.

`Cc1ccc(-c2nc3scc(CCNS(=O)(=O)c4c(C)noc4C)n3n2)cc1`: the survival is inactive: 117%.

Turning to `CSc1nc(C)cc(Nc2cccc(C(=O)O)c2)n1`, the survival was inactive: 63%.

On to `N#Cc1ccc(S(=O)(=O)N2CCNCC2)cc1`, for which the survival is inactive: 98%.

On to `CCOC(=O)C(C)Nc1ncnc2onc(C)c12` (stereo unspecified), for which the survival was inactive: 53%.

As for `COc1cc(NC(=O)CCCN2C(=O)CCn3nc(-c4cn(C)c5ccccc45)cc32)cc(OC)c1`, the survival is inactive: 126%.

`O=C(c1cnc(N2CCCCC2)c2ccccc12)N1CCN(c2ccc(F)cc2)CC1`: the survival is inactive: 79%.

`Fc1ccc(Nc2nc(-c3ccc(F)cc3)c3c(n2)-c2ccccc2OC3)cc1`: the survival was inactive: 56%.

Take `CCC(=O)Nc1ccc2nc(C3CC3)n(Cc3ccc(Cl)cc3)c(=O)c2c1`: the survival was inactive: 111%.

`Cc1c(NC(=O)c2ccc(-c3ccc(F)cc3)o2)cccc1-c1nc2ncccc2o1`: the survival is inactive: 55%.

Take `Cc1sc2c(c1C)c(=O)n(-c1ccc(Cl)cc1)c(=O)n2CC(=O)c1ccccc1`: the survival was inactive: 86%.

As for `COc1cccc(C(=O)Nc2ccc3nc(SCC(=O)N4CCc5ccccc54)sc3c2)c1`, the survival was inactive: 59%.

As to `CCN(CC)S(=O)(=O)c1ccc(N(C(=O)Cn2nnc3ccccc32)C(C(=O)NC2CCCC2)c2ccco2)cc1` (stereo unspecified), the survival was inactive: 77%.

`CC1CCc2nc(NC(=O)Cc3ccc(Cl)cc3)sc2C1` (stereo unspecified): the survival is active: 46%.

In the case of `CCOc1cccc(C2c3[nH]c4ccccc4c3CCN2C(=O)Cc2cccc(OCC)c2OCC)c1` (stereo unspecified), the survival was inactive: 80%.

As to `Cc1cc2c(cc1S(=O)(=O)CCC(=O)N(C)Cc1ccccc1)OCC(=O)N2`, the survival is inactive: 81%.

Regarding `Cc1cc(C)cc(NC(=O)c2cc3c(=O)n(Cc4ccco4)ccc3nc2C)c1`, the survival is inactive: 73%.

With `CCOc1ccc(CNC23CN4CN(CN(C4)C2)C3)cc1`, the survival was inactive: 79%.

In the case of `Cc1nc2c(-c3ccc(F)cc3)c(C)nn2c(C)c1CCC(=O)NCc1cccc(Cl)c1`, the survival was inactive: 78%.

Turning to `CCC(=O)N1CCc2cc(Br)cc(S(=O)(=O)N3CCN(c4cccc(Cl)c4)CC3)c21`, the survival was inactive: 48%.

`O=C(OCC1CCCO1)c1ccc2c(c1)N(Cc1cccc(F)c1)C(=O)c1ccccc1S2(=O)=O` (stereo unspecified): the survival is inactive: 94%.

Consider `COc1cccc(N2C(=O)CSC23C(=O)N(Cc2ccccc2F)c2ccccc23)c1` (stereo unspecified), for which the survival is inactive: 67%.

As to `O=C(c1ccccc1)N1CCN(S(=O)(=O)N2CCOCC2)CC1`, the survival is inactive: 73%.

Regarding `Cc1cccc(NC(=O)C2CCN(S(=O)(=O)c3c(C)noc3/C=C/c3ccco3)CC2)c1C`, the survival is inactive: 87%.

With `COc1ccc(-c2nc(SCCOc3cc(C)ccc3C(C)C)n3[nH]c(=O)cc3n2)cc1`, the survival is inactive: 55%.

On to `COc1ccc2c(CNCCc3ccccc3OC)c(C(=O)O)n(Cc3ccc(F)cc3Cl)c2c1`, for which the survival was inactive: 109%.

For `O=S(=O)(c1ccc(Nc2ccc(-c3ccccc3)nn2)cc1)N1CCCC1`, the survival was inactive: 95%.

Turning to `CSc1cccc(NC(=O)N2CCN(S(=O)(=O)c3ccc4c(ccn4C)c3)CC2)c1`, the survival is inactive: 58%.

In the case of `CC1=C(C(=O)OC2CCCC2)C(c2ccc(Cl)cc2)CC(=O)N1` (stereo unspecified), the survival is inactive: 86%.

On to `O=C(CSc1nc(-c2ccccc2)no1)N1CCN(c2ccc(F)cc2)CC1`, for which the survival was inactive: 86%.

With `COc1ccc(C2=NS(=O)(=O)N(C)C(C(=O)NC(C)c3ccccc3)=C2)cc1OC` (stereo unspecified), the survival was inactive: 75%.

For the compound `Cc1cc(C)cc(NC(=O)CN(c2cccc(C)c2C)S(=O)(=O)c2ccccc2)c1`, the survival was inactive: 87%.

As to `COc1ccc(CCNC(=O)c2cc(-c3ccc(C)c(C)c3)nc3ccccc23)cc1OC`, the survival is inactive: 120%.

Turning to `CCCn1c2ccc(C)cc2c2nnc(SCCN3CCCCC3)nc21`, the survival was inactive: 187%.

Turning to `Cc1ccc(S(=O)(=O)Nc2nc3n(n2)C(c2ccc(Cl)cc2)C=C(c2ccccc2)N3)cc1` (stereo unspecified), the survival is active: 2%.

In the case of `O=C(CN1C(=O)CC(c2ccco2)Sc2ccccc21)Nc1ccc(OC(F)(F)F)cc1` (stereo unspecified), the survival was inactive: 73%.

On to `Cc1ccc(NC(=O)[C@H](Cc2ccccc2)N2Cc3ccccc3C2=O)cc1F`, for which the survival was inactive: 84%.

Take `COc1ccc(C(=O)NCC(c2cccs2)S(=O)(=O)c2cccs2)cc1` (stereo unspecified): the survival was inactive: 71%.

Take `CCOc1ccc(C2CC(=O)c3c([nH]c(C(=O)OC4CCCCCC4)c3C)C2)cc1` (stereo unspecified): the survival was inactive: 61%.

Regarding `CC1=C(C(=O)OC2CCCCCC2)C(c2c(Cl)cccc2Cl)CC(=O)N1` (stereo unspecified), the survival was active: 32%.

Take `CCc1ccccc1NC(=O)Cn1c(=O)oc2ccccc21`: the survival is inactive: 83%.

In the case of `CCCN(C(=O)Cn1nc(Cc2cccnc2)c2ccccc2c1=O)c1ccc(C(C)C)cc1`, the survival is inactive: 66%.

As for `CC(=O)Nc1ccc(S(=O)(=O)N2CCN(c3nc4ccccc4s3)CC2)cc1`, the survival was inactive: 95%.

Consider `CCOc1ccc(CCNC(c2nnc(-c3ccccc3)o2)c2ccccc2Cl)cc1OCC` (stereo unspecified), for which the survival was active: 1%.

For `Cc1ccc(-c2cn3c(n2)sc2cc(C(=O)NC4CCCCCC4)ccc23)c(C)c1`, the survival is inactive: 48%.

For `Cc1ccc(Cl)cc1N1CCN(C(=O)C2CCN(S(=O)(=O)c3c(C)noc3/C=C/c3ccccc3F)CC2)CC1`, the survival was inactive: 72%.

Turning to `Cc1cccc(NC(c2nnc(-c3ccccc3)o2)c2ccc(F)cc2Cl)c1C` (stereo unspecified), the survival was inactive: 61%.

Source of the values: PubChem BioAssay AID463173 (ICCB-Longwood Screening Facility, Harvard Medical School, 2010).
